Assay results taken from PubChem BioAssay (NCI).
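Method: 48-hour compound exposure of cells in 96-well plates, five concentrations, linear interpolation of endpoints. GI50 = concentration required for 50% inhibition of growth. TGI: concentration producing complete growth inhibition.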

tested on: NCI-H322M lung; assay: NCI-60 cell line screen, 48 h

Compound	TGI [µM]	GI50 [nM]
NS(=O)(=O)c1nn2c(Br)c(-c3ccccc3)nc2s1	11.6	–
O=C1CCCC/C(=C/c2ccccc2)N1	> 100	–
CCOC(=O)Oc1c(OC)cc(C(=O)NC2CCc3cc(OC)c(OC)c(OC)c3-c3ccc(SC)c(=O)cc32)cc1OC (centres undefined)	> 70	31.1
COc1ccccc1C1C(C(=O)O)=C(CO)Oc2cc3c(cc21)OCO3 (centres undefined)	> 100	–
CCCCc1c(OC)cc(O)c2c1C(=O)c1[nH]c(C(=O)O)c(O)c(=O)c1C2=O	> 100	–
COc1ccc2nc3ccc(OC)cc3c(S(=O)CCCl)c2c1 (centres undefined)	30.3	–
COc1ccc2c(c1)C(C)Cc1c(Cl)ncnc1N2C (centres undefined)	> 81.4	487
COc1ncnc(C2CC2)c1-c1ncc2cnn(Cc3ccc(-c4nc(C(F)(F)F)cn4C(C)C)cc3)c2n1	> 100	19200
C[C@@H]1C[C@H]2[C@@H]3CCC4=CC(=O)C=C[C@]4(C)[C@@]3(Cl)[C@@H](Cl)C[C@]2(C)[C@@]1(O)C(=O)COP(=O)(O)O	> 100	–
NC(=O)C(N)Cc1ccc(O)cn1 (centres undefined)	> 100	–
Cc1ccccc1N1C(=O)/C(=C/c2ccc(N(CCC#N)CCC#N)cc2)N=C1c1cc([N+](=O)[O-])ccc1Cl	> 100	–
CCN1CCN(c2ccc(Nc3cc(N(C)C(=O)Nc4c(Cl)c(OC)cc(OC)c4Cl)ncn3)cc2)CC1	15.5	2690
CCn1c(-c2cc(OC)cc(OC)c2)nc2c1C(=O)c1ccccc1C2=O	> 100	–
C=C1C[C@@H]2O[C@H]3[C@H]4[C@@H](C[C@@H](C)[C@@H](OC(C)=O)[C@H]42)[C@@H](C)CO[C@@]3(C)[C@H](OC(C)=O)C[C@H]1O	> 100	–
O=C1c2ccccc2C(=O)C1(Cl)C1(S(=O)(=O)O)c2ccccc2-c2ccccc21	> 100	–
Cc1ccc(/C=N/n2c(=O)[nH]c3ccccc3c2=O)cc1	> 100	–
Oc1ccc2ccccc2c1/C=C/c1ccc2c(Br)cc(Br)c(O)c2n1	21.7	–
C[N+](C)([O-])CCC=C1c2ccccc2CCc2ccccc21	> 100	–
Cc1cc(C)c(S(=O)(=O)N2CCCN(S(=O)(=O)c3c(C)cc(C)cc3C)OCCCON(S(=O)(=O)c3c(C)cc(C)cc3C)CCCN(S(=O)(=O)c3c(C)cc(C)cc3C)OCCCO2)c(C)c1	> 100	–
CCCCOC(=O)C1C(c2ccc(Cl)cc2)NC(c2ccc(Cl)cc2)C(C(=O)OCCCC)S1(=O)=O (centres undefined)	> 100	–
CC(=O)OCCn1cnc2nc(Nc3ccccc3)nc(Cl)c21	> 100	–
CC(C)C1OC23CCCCC2C(C#N)(C#N)C1(C#N)C(=N)O3 (centres undefined)	> 100	–
Clc1c(Cl)c(Cl)c2nn(C3CCCO3)nc2c1Cl (centres undefined)	> 100	–
COc1cc(/C=C2\CCC(C)C3C2=NN(C(C)=O)C3c2cc(OC)c(OC)c(OC)c2)cc(OC)c1OC (centres undefined)	> 100	–

Compound	TGI [µM]	GI50 [nM]
O=S(=O)(Nc1cc(F)cc(Cl)c1)c1ccc(-c2cnc(C3CC3)o2)cc1	25.7	7980
N#CSC#Cc1ccc(C#CSC#N)cc1	> 100	–
COCCOc1cc(F)c2c(Nc3ccc(NC(=O)Cn4cc(C(C)C)nn4)cc3)ncnc2c1	> 100	> 100000
COc1ccc(OC)c(NC(=O)C(=O)NNC(=O)c2sc(NNC(C)=O)nc2C)c1	> 100	–
O=C(CCCn1ccnc1[N+](=O)[O-])NCCn1cncc1[N+](=O)[O-]	> 100	–
COc1ccc(CC2c3cc(Oc4cc(CC5c6cc(OC)c(OC)cc6CCN5C)ccc4O)c(OC)cc3CCN2C)cc1 (centres undefined)	14.3	–
CCc1nc(N)nc(N)c1-c1ccc2nn(-c3ccccc3)[n+]([O-])c2c1	53.9	–
O=C(O)c1n[nH]nc1Cl	> 100	–
CCc1nc(N)nc(N)c1-c1ccc(Cl)c(Cl)c1	> 100	–
CCOC(=O)C1=CC(C)(C(=O)OCC)Nc2c(nc(OC)n(C)c2=O)N1 (centres undefined)	> 10	–
CS(=O)(=O)Nc1ccc(N2Cc3cnc4ccc5[nH]ccc2c5c34)cc1	55.8	–
O=Cc1ccc2c(c1)CC1(C2)Cc2ccc3c(c2C1)CCC3 (centres undefined)	54.1	–
Cc1nc2ccccc2c(=O)n1NC(=O)c1ccc(CS)cc1	> 100	–
Cc1cc(N(CCC#N)CCC#N)ccc1/C(N=Nc1ccc([N+](=O)[O-])cc1)=N\NC(=O)c1cc(Cl)ccc1C(=O)c1ccccc1	> 100	–
COc1ccc(C(C)NNC(=O)c2ccncc2)c(OC)c1 (centres undefined)	> 100	–
CC(C)(C)C(=O)OCOP(=O)(OCOC(=O)C(C)(C)C)C1CCCN(O)C1=O (centres undefined)	8.5	673
O=S(=O)(c1ccccc1)n1c2cc3cccnc3nc2c2cccnc21	> 100	–
O=C(O)c1nc(-c2ccccc2)ncc1-c1nnnn1-c1ccccc1	> 100	–
Oc1ccc(Cl)cc1Cc1cc(Cl)cc(Cl)c1O	55.6	7270
O=[n+]1c2c(n([O-])c3ccccc31)CCCCCCCCCC2	> 100	–
CC1OC2CC(=O)OC2C2=C1C(=O)c1c(O)cccc1C2=O (centres undefined)	2.13	814
O=[N+]([O-])c1cc2oc(COc3ccccc3)nc2cc1Cl	> 100	–
C#Cc1cccc(Nc2ncnc3cc(OC)c(OCCCCCCC(=O)NO)cc23)c1	0.416	69.8
CN(c1ccc(Cl)cc1)S(=O)(=O)c1cccc([N+](=O)[O-])c1	> 100	–

Compound	TGI [µM]	GI50 [nM]
C=C(F)C(=O)N1CCN(c2nc(OC[C@@H]3CCCN3C)nc3c2CCN(c2cccc4cccc(Cl)c24)C3)C[C@@H]1CC#N	5.86	1730
COc1ccc(C2CC(=O)CC(c3ccc(OC)cc3)C23C(=O)NC(=O)NC3=O)cc1 (centres undefined)	46.6	–
CC/C(=C(/c1ccc(OCCN(C)C)cc1)c1ccc(OC(=O)CCCCC(=O)c2c(C)[nH]c(/C=C3\N=C(c4ccc[nH]4)C=C3OC)c2C)cc1)c1ccccc1	30.6	13600
O=C1OC(c2ccccc2)=N/C1=C/C=C/c1ccco1	> 100	–
CC(C)(Cc1ccccc1)NC1=NCCO1	> 100	–
O=c1c2ccccc2[se]n1-c1cccnc1	> 100	–
CC(=O)c1c2c(cc3c1CC1(Cc4ccccc4C1=O)C3)CCC2 (centres undefined)	> 100	–
COc1nc(C(=O)NNC(=O)c2nc(OC)c3ccccc3c2-c2ccccc2)c(-c2ccccc2)c2ccccc12	> 100	–
NC(N)=NCCN=C(N)N	> 100	–
O=NN(CCCl)C(=O)NC1CCSc2ccccc21 (centres undefined)	> 100	–
O=C(Nc1nc2ncn(CCI)c2c(=O)[nH]1)c1ccccc1	> 100	–
CC1CC(N)=Nc2ccccc2N1 (centres undefined)	> 100	–
O=C(OC(=O)n1ccc2ccccc21)n1ccc2ccccc21	> 100	–
O=C(OCc1ccc2cccc(O)c2n1)N1CCN(C(=O)c2cc3cc(F)ccc3[nH]2)CC1	4.52	1660
C/C1=C\CC[C@@]2(C)O[C@@H]2[C@H]2OC(=O)[C@@H](CN(C)C)[C@@H]2CC1	33.8	18100
CC1=CC(/C=C(\C)CCCc2ccoc2)C2(OC(=O)C(C)=C2O)[C@H]2C1CC[C@@H]2C (some centres undefined)	70.1	–
COc1ccc(N=C2SC(=N/N=c3\sc4ccccc4n3C)SC2=Nc2ccc(OC)cc2)cc1	> 100	–
CC(C)(C)C(=O)OCC1CCC[N+]2(C)CCCCC12 (centres undefined)	> 100	–
C=CC1CC12C(=O)C1OC2(C)C2C(=O)c3cc4ccccc4cc3C(=O)C12 (centres undefined)	> 100	38100
Cc1ccc(S(=O)(=O)NCC2CCCCC2=O)cc1 (centres undefined)	> 100	–
CCC[CH2][Ge]([CH2]CCC)([CH2]CCC)[O]C(=O)CC(=O)c1ccccc1	20.8	5710
Cc1ccc(S(=O)(=O)N/N=C/C(=C/c2ccc(Cl)cc2)CC(/C=N/NS(=O)(=O)c2ccc(C)cc2)=C\c2ccc(Cl)cc2)cc1	> 100	–
Cc1cc(=O)[nH]c(NN2C(Cl)C(=O)C2c2cccc(O)c2)n1 (centres undefined)	> 100	–
NCCCNc1nc2ccccc2c2c(=O)c3cc(OC(F)(F)F)ccc3sc12	2.96	1600
